# From the supplement of paper PMC3334620
# In all, about 33,000 sequences were measured (“E-score (-0.5 to 0.5)”: median about -0.01, highest 2% from about 0.26 on). Some of the results follow.
# Target: Ste12 (UniProt P13574)
# Assay: PBM E-score (8-mer binding enrichment) (E-score (-0.5 to 0.5)); higher = stronger / more preferred TF binding; most listed sequences are background and not binding sites
# Settings: protein concentration: 200 nM; construct: GST-DNA-binding domain
# Outline: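 Bound GST-tagged yeast transcription factors, applied at about 100-200 nM to double-stranded universal all-10-mer Agilent arrays, were detected with fluorescent anti-GST. Scans were normalised with masliner. A modified Wilcoxon-Mann-Whitney statistic, the E-score, was assigned to each ungapped eight-base word pooled with its reverse complement by the Universal PBM Analysis Suite.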
row,Sequence,PBM E-score
1,GCGGTGCC,-0.0915
2,GACTTACA,-0.195
3,CACTAGTA,-0.117
4,CTGCTGTC,-0.0137
5,ATCGAGTC,0.0308
6,AACAGATA,0.13
7,ACCTATAA,0.0688
8,CCCGCTAA,-0.0154
9,ACCAGGCC,-0.0799
10,TAAATCGA,0.145
11,CAGTGGGG,-0.118
12,GAGGAAAC,0.106
13,GACTTTCC,0.0228
14,AGACGATG,-0.0498
15,CATGTAGA,-0.0121
16,GCTGGATA,0.0153
17,ATCTGCAC,-0.118
18,AGCGCGGG,0.0421
19,CCGAAGCA,-0.114
20,CAACATTG,0.201
21,CACCACAC,-0.09
22,CGTGACAG,-0.00929
23,ATCCGACA,-0.105
24,ATTAAGAG,0.0211
25,ACCAGCCC,-0.0943

row,Sequence,PBM E-score
1,AACCGTCC,0.0376
2,AGTTTCGC,0.184
3,ACCTTAAC,0.138
4,GGTGTATA,-0.168
5,GATGCCAC,-0.16
6,AGACTCCG,-0.178
7,CAAGCTAA,-0.147
8,ACGCCAGA,0.0478
9,ACCCGACA,0.0405
10,CCTATATA,0.0209
11,CGATTGAC,0.0755
12,ATACGGGA,0.0194
13,CTTCCTGA,0.0627
14,AGCGTCCA,-0.26
15,AATATTTG,0.21
16,CAACTTCG,0.228
17,AGGGGAGG,0.348
18,ATCCACAT,-0.0297
19,AAACAGTG,0.309
20,CGCGGTGC,-0.204
21,AATACTGG,0.0598
22,CCCAGCAC,-0.227
23,CATACATC,-0.0613
24,GGGTACCC,-0.219
25,CAAAGCCA,0.00332

row,Sequence,PBM E-score
1,CCCGGCCG,-0.239
2,GCGTCCTA,0.00273
3,CAGACCCA,0.0324
4,CTGCTAGA,-0.194
5,CGTAAAGA,-0.0705
6,CGGTTGAC,-0.0904
7,AGATTCTG,-0.185
8,GATTGCGA,0.103
9,CATATCAG,0.0421
10,TCAAGCAA,0.119
11,AGCCGACG,-0.0138
12,CTTCGGGA,-0.065
13,CCGCGTGA,-0.0137
14,CCACTCCA,-0.0281
15,CATTGCCA,-0.0301
16,CGAGATCA,-0.0536
17,CGAAAATC,0.0318
18,TATCGTCA,0.0847
19,ACGCGGCT,-0.081
20,AGCTACAT,-0.222
21,ACTTCGTG,0.0745
22,CCATTCTA,-0.0163
23,AGTACCTG,-0.0853
24,AGGCTGTC,-0.0443
25,TACGGCAA,0.0168

row,Sequence,PBM E-score
1,CCAGGGTC,-0.17
2,CGAACGAC,-0.034
3,CCTGACAA,-0.0135
4,GATCCGCA,-0.127
5,CCCGCATC,0.101
6,CCCGTCCA,0.0294
7,AGACCTCG,-0.0758
8,GATAAGTA,0.00593
9,ATTCCAGG,-0.0608
10,AACCCCAA,0.0298
11,ACCTGTAC,-0.0307
12,CCATAGTC,-0.106
13,GAATGGTC,-0.0459
14,ACAATGGT,-0.158
15,AAGCGATT,-0.0133
16,CAGGTACG,-0.0567
17,CGCAATCA,0.0872
18,AAGAAAAT,0.254
19,CTATAAGC,-0.0583
20,GACTACTA,-0.138
21,GAGACATC,-0.0449
22,CATGCGGG,-0.0626
23,CAAGCGTC,-0.128
24,AGGCGGGA,0.0721
25,ATGGCTAC,0.0632

row,Sequence,PBM E-score
1,GCCTGCGC,-0.119
2,ACACCGGA,-0.00681
3,GACGTAAA,-0.00157
4,GATAAGAC,0.0185
5,GTAACCAA,0.0303
6,ACTTTCAA,0.167
7,CAGTGAAC,-0.0119
8,GTCCAATA,-0.143
9,GAAGGGCC,-0.158
10,GAGACGCA,-0.0443
11,CAGGTGTA,0.0993
12,GCGCGGAA,0.224
13,GCTGCGTA,-0.155
14,CATCATAG,0.11
15,CCTACCAC,-0.145
16,ATAGCGGG,0.0949
17,CAGTCGCG,-0.0193
18,GGACACAA,0.146
19,ATCTTGCG,0.0576
20,CACGTTTC,0.285
21,ATCACTGG,0.00928
22,ATGCTCAA,-0.0833
23,GGATGTCA,0.244
24,CTCTGCTA,-0.281
25,CCGTGAGA,-0.221

row,Sequence,PBM E-score
1,ACGCAGTA,-0.142
2,AGCTTGTA,-0.025
3,GCCCTACA,-0.214
4,ACTTAGAC,-0.0823
5,ATAAAGAT,0.182
6,GGAGAGAC,0.0275
7,TATAGTGA,-0.0854
8,TCGTAGCA,0.0284
9,GTGTTAAC,0.0667
10,CGCCCACC,0.139
11,ACTTAAAT,0.138
12,ACTGTAAG,-0.0769
13,TCTAGCAA,0.0544
14,CGTCCTTC,0.0288
15,CGTATAGA,-0.0523
16,AGAAAGGC,-0.155
17,GCATCTAA,0.13
18,CACGGAAC,0.127
19,ACTTAGTC,-0.0559
20,ATTCCGAA,0.109
21,CCCTATCG,-0.24
22,ATGGGAAC,-0.0809
23,AAAAATAG,0.24
24,AATGGTAC,-0.039
25,GGTGCTGA,-0.0709

row,Sequence,PBM E-score
1,AGCCGTCC,-0.0621
2,ACATCCAC,-0.00521
3,AAAGTACA,0.209
4,GAGTGTTA,-0.0961
5,ACTTTGAT,0.11
6,AGTAAGCA,-0.0954
7,CAACCTTC,-0.115
8,GCTTTTCC,-0.0357
9,TCTCGCAA,0.00805
10,GAGCATCA,-0.156
11,TCTGATCA,-0.0592
12,GAGGGCTA,-0.223
13,AGCTCCTA,-0.238
14,CTATGCGC,-0.00749
15,GTCGTAGA,-0.121
16,AGCCCCCT,-0.266
17,CTTGTAGC,-0.0229
18,ACGCGGAC,-0.148
19,GCTGGTAC,-0.178
20,CCACGCCA,-0.018
21,CGGCGCGA,0.189
22,AGCCCACT,-0.0644
23,ACCCGATA,0.13
24,CATCCAGA,-0.00655
25,CCACACAA,0.0302

row,Sequence,PBM E-score
1,CGTGGTGA,-0.226
2,ACTAGCAA,-0.0295
3,CGACGCGA,-0.0351
4,GGCATCCC,-0.173
5,GGCTCAGA,-0.0837
6,ACCGGATG,-0.166
7,AGGATGAT,0.104
8,GGCACTAA,-0.101
9,CCGGGTCG,-0.0265
10,CGGCAAGA,-0.0842
11,ACGGTGCT,-0.0587
12,CACCATCA,0.0196
13,AAGCTGGA,-0.0676
14,AACTGGTG,-0.125
15,GTTTCTCA,0.0531
16,TAGAGGCA,-0.152
17,CAAGCCCA,-0.157
18,CAATCGAA,-0.021
19,GATATAGC,0.0358
20,AAGTCCGA,-0.0579
21,AGATACGG,0.11
22,TAAAGGGA,-0.051
23,CTGCGATA,-0.158
24,CCTTTTAA,0.0649
25,AAGAGCCA,0.0885

row,Sequence,PBM E-score
1,GACACATC,0.0098
2,CCAGGAGC,-0.093
3,GACACTCC,0.0388
4,GTATTGAC,-0.0665
5,ACGACCGA,-0.00584
6,GGGGAAAC,0.159
7,ATCCAATG,-0.165
8,CTCATGGA,-0.0927
9,GGGATGTA,-0.0856
10,AAGAGACC,-0.125
11,CACTGATG,-0.124
12,GCGCCGTA,-0.0921
13,GACGGCCA,-0.153
14,ATAAAGAG,-0.0595
15,AAACGTGT,0.123
16,CAAAGGAG,-0.0623
17,CATGACGA,0.076
18,TCATGAGA,0.0861
19,AATGGTCG,0.0135
